# The other results are listed elsewhere or left out. The energies were worked out here from pooled read counts, against the library average; single values are noisy.
# Target: T1, Pho4 (S. cerevisiae) (UniProt P07270)
# T1 sequence: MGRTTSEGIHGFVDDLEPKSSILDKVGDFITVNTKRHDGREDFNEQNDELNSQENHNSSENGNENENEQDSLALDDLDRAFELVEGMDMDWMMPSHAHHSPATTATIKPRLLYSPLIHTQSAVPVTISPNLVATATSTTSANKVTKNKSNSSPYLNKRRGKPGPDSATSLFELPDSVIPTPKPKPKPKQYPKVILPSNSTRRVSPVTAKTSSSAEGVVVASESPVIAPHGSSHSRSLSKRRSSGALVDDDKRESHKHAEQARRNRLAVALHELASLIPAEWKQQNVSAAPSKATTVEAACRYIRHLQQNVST
# Assay: relative binding free energy (BET-seq); higher = weaker binding
# Settings: reference: library average
row,Sequence,relative binding free energy [kcal/mol]
1,TATAGCACGTGGGATC,-0.06
2,GTGTTCACGTGCGTTG,0.22
3,TTTACCACGTGTGCTT,-0.02
4,TGTGTCACGTGTAACG,0.13
5,TGCGGCACGTGGCTAG,-0.1
6,TTTAGCACGTGGCGAG,-0.12
7,TTTTCCACGTGTATAT,0.08
8,GTTTTCACGTGAAGGC,0.34
9,CTTGTCACGTGGATAG,-0.01
10,GGTCACACGTGGGTGT,-0.05
11,AGAAACACGTGGTTTG,-0.01
12,AGGTTCACGTGGGAAA,0.19
13,AGTGACACGTGTAATA,0.08
14,AGCTGCACGTGGTGAT,-0.11
15,TCTGACACGTGGTGAT,-0.03
16,TTATACACGTGAGGCG,0.42
17,AGGCCCACGTGTGGGT,-0.14
18,TTGCGCACGTGGTTGT,-0.17
19,TGGGACACGTGAGTTG,0.37
20,TTTGCCACGTGGAGCT,0.03
21,GTGCGCACGTGATGAG,0.13
22,CGGATCACGTGGGGCG,0
23,GATTGCACGTGGTGTT,0.15

row,Sequence,relative binding free energy [kcal/mol]
1,GATGACACGTGCGTTT,-0.01
2,AGGCGCACGTGTGTAA,-0.06
3,GTAGACACGTGTGTGG,0.1
4,GAGCGCACGTGGGGCG,-0.35
5,GAGCCCACGTGGGGGT,-0.11
6,TGGTGCACGTGAGGTA,0.19
7,GGCATCACGTGTGGGA,0.13
8,TATAGCACGTGTTGTC,-0.18
9,AATGACACGTGGTTTG,0.01
10,TAGGTCACGTGGCATG,-0.06
11,GGTTCCACGTGAGGGT,0.31
12,TAGTGCACGTGCATTT,-0.17
13,TGTGTCACGTGTCTGG,0.04
14,TACATCACGTGGAGTT,0.12
15,CGTGTCACGTGGCTTG,-0.02
16,TTTATCACGTGGCCTT,0.01
17,TAGGCCACGTGGGGAC,-0.03
18,ATGTGCACGTGTGAAG,0.07
19,ATCTGCACGTGTGAGG,-0.01
20,AACTGCACGTGGGCGG,-0.23
21,GTTGACACGTGCGAGG,0.04
22,GAAATCACGTGGTTGG,0.21
23,TAGCGCACGTGGGTGC,-0.36

row,Sequence,relative binding free energy [kcal/mol]
1,AAATACACGTGGGTTA,-0.15
2,TATTACACGTGGGACT,0.04
3,TGGTTCACGTGGCATG,0.29
4,TGTGTCACGTGCAGGT,0.01
5,AGGGTCACGTGCGGTC,0.06
6,CGCGGCACGTGATGTG,-0.02
7,TGGCTCACGTGCGAGT,0.13
8,TATGACACGTGGGTTC,-0.18
9,TGGGTCACGTGGCTAC,0.09
10,TGCTGCACGTGGTACT,-0.1
11,TGATACACGTGGGGCA,-0.15
12,TTTTGCACGTGGGCTC,0
13,TAAATCACGTGAATAG,0.45
14,CGTAACACGTGGATGT,-0.06
15,GTGATCACGTGGGGTC,0.03
16,AGATTCACGTGAAGGG,0.32
17,GATAACACGTGCGTGG,0.03
18,GTTGTCACGTGCTGCT,0.08
19,GATAACACGTGTATGG,0.08
20,ATGTTCACGTGTTGAA,0.23
21,GCGGGCACGTGGGAAG,-0.06
22,GTTTTCACGTGTTCCG,0.33
23,GGTAGCACGTGTTGCG,-0.01

row,Sequence,relative binding free energy [kcal/mol]
1,CCGTGCACGTGGGATT,-0.07
2,GTTGGCACGTGTTTTT,0.13
3,GTTTTCACGTGTACTT,0.41
4,TGGCTCACGTGGGAAA,0.27
5,GAGTGCACGTGTACTT,0.06
6,GTAAACACGTGAGAGG,0.27
7,AAGATCACGTGGGGTG,0.02
8,GGGGTCACGTGTGCCT,0.19
9,GTGTACACGTGATGAA,0.23
10,TTGATCACGTGGAAGA,0.37
11,GGATGCACGTGATGAT,0.18
12,GCAGGCACGTGTGTTT,0.01
13,ATAGGCACGTGATTGA,0.04
14,TATCGCACGTGTAGTG,-0.05
15,TTGCGCACGTGAGGCG,0.21
16,TATAGCACGTGTATGT,-0.09
17,TCGGACACGTGGTAGG,0.03
18,TCGATCACGTGTTGTA,0.1
19,TTGGCCACGTGAGAAT,0.27
20,GTTTGCACGTGAGGCG,0.31
21,TGTACCACGTGGGCGT,-0.24
22,GAGTGCACGTGAATTG,0.29
23,TTACGCACGTGCGGTT,-0.12

row,Sequence,relative binding free energy [kcal/mol]
1,AGTTGCACGTGGTTAT,-0.12
2,TTTTACACGTGTATAT,0.04
3,TAATTCACGTGTAAAT,0.39
4,GTTGGCACGTGACGGC,-0.03
5,GGTGTCACGTGATTCT,0.29
6,AGGGTCACGTGACTTA,0.15
7,GTATCCACGTGGAGGT,-0.08
8,TTATGCACGTGGAAGA,-0.12
9,GTGGACACGTGGGTTT,-0.02
10,TTTAGCACGTGGATGC,-0.12
11,GGTGGCACGTGGATCT,0.03
12,ATATACACGTGGGAGG,-0.18
13,AGTGGCACGTGCTTGC,-0.17
14,TTTATCACGTGGGGGT,-0.01
15,AGGGGCACGTGTGGGC,-0.14
16,TTCGTCACGTGTGAGT,0.21
17,AGTGCCACGTGAGTTG,0.04
18,TGTTTCACGTGTTACA,0.12
19,CAGGTCACGTGCATGG,0.08
20,TTTGGCACGTGTACTA,-0.03
21,AGATGCACGTGTGTAG,-0.07
22,GTTCTCACGTGGAGTG,0.19
23,GGGCGCACGTGTTGAT,-0.15
